The values below come from article PMC6919601, “Identification of Plasmodium dipeptidyl aminopeptidase allosteric inhibitors by high throughput screening” (PLoS ONE, 2019).

Each structure is given as a SMILES string. In all, about 110,000 compounds went through this assay and about 230 (0.21%) showed an effect of 50% or more. The list shows a part of the results.
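Also: 30 min substrate incubation versus DMSO and 10 µM JCP410 controls.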

The target of this assay is DPAP1 (Plasmodium falciparum, UniProt Q8IIJ9). In words: primary screen, percent inhibition; read by cleavage of a fluorogenic dipeptide substrate; higher = more effect of the substance. On the set-up: species or system P. falciparum D10 trophozoite lysates; single well.
DPAP1, sequence (Q8IIJ9 whole entry, looked up): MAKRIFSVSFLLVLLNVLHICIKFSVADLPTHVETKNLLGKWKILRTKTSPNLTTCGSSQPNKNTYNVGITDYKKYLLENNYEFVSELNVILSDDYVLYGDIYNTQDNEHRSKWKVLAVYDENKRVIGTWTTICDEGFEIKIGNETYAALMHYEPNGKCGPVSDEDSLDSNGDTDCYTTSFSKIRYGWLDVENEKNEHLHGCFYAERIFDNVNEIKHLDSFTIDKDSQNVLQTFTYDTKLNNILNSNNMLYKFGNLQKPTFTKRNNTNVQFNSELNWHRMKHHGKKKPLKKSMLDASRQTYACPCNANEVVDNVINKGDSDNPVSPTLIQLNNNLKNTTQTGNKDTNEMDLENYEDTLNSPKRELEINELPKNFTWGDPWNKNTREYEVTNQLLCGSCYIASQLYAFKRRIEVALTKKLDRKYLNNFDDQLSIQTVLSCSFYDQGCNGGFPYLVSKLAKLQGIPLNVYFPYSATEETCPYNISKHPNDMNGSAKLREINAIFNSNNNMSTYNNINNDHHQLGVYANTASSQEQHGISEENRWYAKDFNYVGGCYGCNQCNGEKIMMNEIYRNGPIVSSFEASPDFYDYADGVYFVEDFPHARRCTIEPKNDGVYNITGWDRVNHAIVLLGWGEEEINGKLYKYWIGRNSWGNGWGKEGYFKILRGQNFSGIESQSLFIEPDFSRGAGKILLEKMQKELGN
On to `NC(=O)c1c(NC(=O)c2cccnc2Cl)sc2c1CCCC2`, for which the “% Inhibition @ 10 uM” value is 5.73%. As to `O=C(NCCc1ccc(Cl)cc1)c1cc2ccccn2n1`, the “% Inhibition @ 10 uM” value is on record as -0.0115%. In the case of `O=C(c1ccc([N+](=O)[O-])o1)N1CCN(C/C=C/c2ccccc2)CC1`, the “% Inhibition @ 10 uM” value was -1.5%.

Take `COc1ccc(-c2nc(C#N)c(NCC(C)C)o2)cc1`: the “% Inhibition @ 10 uM” value is on record as -1.43%. As for `Cc1cccc(OCC(=O)Nc2ccc(Br)c(Cl)c2)c1`, the “% Inhibition @ 10 uM” value was -0.173%. For `CN1CCN(C(=O)CC(c2ccccc2)c2ccccc2)CC1`, the “% Inhibition @ 10 uM” value is listed as -1.99%. As to `Cc1ccc(C(=O)N2N=C(C3CCCCC3)CC2(O)C(F)(F)F)o1` (stereo not drawn), the “% Inhibition @ 10 uM” value was found to be 0.583%.

As to `CCCCN(CCCC)S(=O)(=O)c1cccc2c1C(=O)c1ccccc1C2=O`, the “% Inhibition @ 10 uM” value is given as 1.37%. `CCN(CC)CCC(C)OC(=O)c1ccc(O)cc1O` (stereo not drawn): the “% Inhibition @ 10 uM” value is reported as 0.962%.

On to `C=CCSc1nc(C)c2cc(OCC)ccc2n1`, for which the “% Inhibition @ 10 uM” value was -8.72%.

As for `O=C(Nc1cccc2c1[nH]c1ccccc12)C(F)(F)F`, the “% Inhibition @ 10 uM” value is recorded as 10.7%.

Take `CCOc1ccc(NC(=O)/C=C/c2cccc([N+](=O)[O-])c2)cc1`: the “% Inhibition @ 10 uM” value amounted to 20.2%. In the case of `CCCC1=C(C(=O)OCC)C(c2ccc3c(c2)OCO3)NC(=O)N1` (stereo not drawn) it was 5.16%; in that of `CC(=O)c1cc(-c2ccccc2)n(CCC(=O)NCc2ccccn2)c1C`, -7.35%. As for `CC1(C)CC(=O)C(C(C2=C(O)CC(C)(C)CC2=O)c2cccc(O)c2)C(=O)C1` (stereo not drawn), the “% Inhibition @ 10 uM” value is on record as -3.77%. Regarding `CCNC1CCCc2c1[nH]c1ccc(C)cc21` (stereo not drawn), the “% Inhibition @ 10 uM” value is given as -1.38%.

Turning to `Cc1c(C#N)c2cc([N+](=O)[O-])ccc2n1Cc1ccccc1`, the “% Inhibition @ 10 uM” value was -5.78%.

On to `COc1ccc(CCNC2CC(=O)N(c3ccc(C)cc3)C2=O)cc1OC` (stereo not drawn), for which the “% Inhibition @ 10 uM” value is -2.82%.

As to `CC1=C(C(=O)Nc2ccccc2)C(c2ccco2)C(C#N)=C(SCC(=O)Nc2cccc(C)c2C)N1` (stereo not drawn), the “% Inhibition @ 10 uM” value is reported as -9.39%. On to `COc1cc(C)c(Cl)cc1S(=O)(=O)NCc1ccco1`, for which the “% Inhibition @ 10 uM” value came out at 0.245%. Take `C=CCc1c(C)nc2ccccc2c1O`: the “% Inhibition @ 10 uM” value is reported as 4.32%.

For `O=S(=O)(Nc1nccs1)c1ccc(-n2cccc2)cc1`, the “% Inhibition @ 10 uM” value is -2.45%.

Turning to `COc1ccc2c(C)c(Cc3ccccc3)c(=O)oc2c1C`, the “% Inhibition @ 10 uM” value is 8.98%. In the case of `COc1ccc(C2C(C#N)=C(N)Oc3[nH]nc(-c4ccc(Cl)cc4)c32)cc1OC` (stereo not drawn) it was 4.75%; in that of `COc1cccc(CN(C(=O)c2ccc(OC)c(Cl)c2)C2CCS(=O)(=O)C2)c1` (stereo not drawn), -3.12%; in that of `O=C(Nc1ccccn1)c1sc2cc(F)ccc2c1Cl`, -3.27%.

As to `O=C(Nc1ccccn1)c1ccc(-c2ccc(C(=O)Nc3ccccn3)cc2)cc1`, the “% Inhibition @ 10 uM” value is reported as 1.28%. Consider `COc1ccccc1NC1=C(Cl)C(=O)N(c2ccccc2)C1=O`, for which the “% Inhibition @ 10 uM” value amounted to 5.66%. In the case of `O=S(=O)(NC1c2ccccc2Oc2ccccc21)c1ccccc1` it was -1.6%; in that of `Cc1cc(C)cc(NC(=O)C(C)N2C(=O)c3ccccc3C2=O)c1` (stereo not drawn), -1.88%; in that of `O=Cc1cccn1CC(=O)O`, -3.78%. In the case of `CC1=C(C(=O)Nc2ccc(Cl)cc2)C(c2ccncc2)n2ncnc2N1` (stereo not drawn) it was -4.02%; in that of `O=C1C(Br)=CC(=NS(=O)(=O)c2ccccc2)C=C1Br`, 14.4%; in that of `CCN(CC)c1nc(-c2ccccc2F)nc2ccccc12`, 4.8%. In the case of `CCOC(=O)N1CCN(C(=O)c2ccc(CS(=O)(=O)c3c(Cl)cccc3Cl)o2)CC1` it was -3.32%; in that of `COc1cccc(C2NC(S)=NC(C)=C2c2nc(-c3ccccc3)no2)c1` (stereo not drawn), 4.85%; in that of `c1ccc(CCN2CCC(N3CCN(c4ccccc4)CC3)CC2)cc1`, 1.57%. Take `COCCNC(=S)NCc1ccc2c(c1)cc(C)n2C`: the “% Inhibition @ 10 uM” value was -1.89%. With `CCCOc1ccc2ncc(C(=O)O)c(O)c2c1`, the “% Inhibition @ 10 uM” value stood at 4.85%. On to `O=C(CN1CCCCC1)Nc1c2c(nc3ccccc13)CCC2`, for which the “% Inhibition @ 10 uM” value is on record as -3.16%. In the case of `C=CCn1c(=N)n(CC(O)C(C)(C)C)c2ccccc21` (stereo not drawn) it was -1.88%; in that of `CCc1nc2ccccc2n1CCCOc1ccc(Cl)cc1`, -2.28%; in that of `CCNC(=O)C1CCN(c2nnc(C)c3c(C)n(-c4ccccc4)nc23)CC1`, -7.13%.

Regarding `O=c1sc2ccccc2n1Cc1ccccc1Cl`, the “% Inhibition @ 10 uM” value is on record as -8.2%. In the case of `Cc1ccc(C(=O)c2c(N)sc3c2CCCC3)cc1` it was 4.16%. Under `CC(C)C[C@H](NC(=O)N1CCC(C)CC1)C(=O)NCC#N` stands -1.82%. In the case of `CC(C)Cc1ccc(S(=O)(=O)N2CC(C)CC(C)C2)cc1` (stereo not drawn) it was -1.2%; in that of `Cn1c2ccccc2c2cnn(CC(=O)N3CCc4ccccc4C3)c(=O)c21`, -3.67%. As for `COc1cc(C2Nc3ccccc3C(=O)N2Cc2ccccc2)ccc1O` (stereo not drawn), the “% Inhibition @ 10 uM” value amounted to 2.79%. Consider `C=CCNC(=O)C1CCN(S(=O)(=O)c2ccc(Cl)cc2)CC1`, for which the “% Inhibition @ 10 uM” value was found to be 3.58%.

For the compound `O=C(CSc1nc(O)c2cnn(-c3ccccc3)c2n1)N1CCCC1`, the “% Inhibition @ 10 uM” value is given as -5.22%. For `COc1ccc2oc(C(=O)c3ccc(F)cc3)c(NC(C)=O)c2c1`, the “% Inhibition @ 10 uM” value amounted to 3.34%. Under `CC(C)(C)c1ccc(C2=N/C(=C\c3cccs3)C(=O)O2)cc1` stands -1.51%; under `Cc1c(C)n(C(=O)CSc2nccn2C)c2ccccc12`, -7.45%. For the compound `Cc1ccc(C2C3=C(O)c4ccccc4C3=Nc3c2c(=O)[nH]c(=O)n3Cc2ccccc2)cc1` (stereo not drawn), the “% Inhibition @ 10 uM” value was -2.75%.

Consider `OC1=C2C(=Nc3ccccc3SC2c2ccccc2)c2ccccc21` (stereo not drawn), for which the “% Inhibition @ 10 uM” value is given as -2.28%. Take `Cc1nn(CC(=O)NCCCN(C)C2CCCCC2)c(=O)c2nn(-c3ccccc3)c(C)c12`: the “% Inhibition @ 10 uM” value is recorded as -2.52%.

Regarding `CCOC(=O)C1=C(C)N=c2s/c(=C\c3cccc(Br)c3)c(=O)n2C1c1ccccc1` (stereo not drawn), the “% Inhibition @ 10 uM” value worked out at 1.84%. With `CCOc1ccc(NC(=O)CN2C(=O)S/C(=C/c3cc(C)n(-c4ccccn4)c3C)C2=O)cc1`, the “% Inhibition @ 10 uM” value is given as -10.9%. Under `O=C(Nc1cccnc1Cl)c1cc2nc(C(F)F)cc(C(F)F)n2n1` stands -0.318%. On to `COc1ccc(CCNC(=O)c2cccnc2C(=O)O)cc1OC`, for which the “% Inhibition @ 10 uM” value was found to be 2.22%. In the case of `COc1cccc(-c2[nH]nc3c2C(c2ccc(OC)c(Br)c2)C(C#N)=C(N)O3)c1` (stereo not drawn) it was 1.57%. In the case of `CC1CC2(C)Oc3ccccc3C3OCC1(CO)C(C)C32` (stereo not drawn) it was 1.57%; in that of `CC(C)C(NS(=O)(=O)c1cccc2nsnc12)C(=O)NCCc1ccc(Cl)cc1` (stereo not drawn), -4.1%; in that of `CCOc1ccc(C2C3=C(O)CCCC3=NC(C)=C2C(=O)Nc2ccccc2OC)cc1` (stereo not drawn), -2.64%. Under `CC(C)c1ccc(-c2c(N3CCCCCC3)c(=O)c2=O)cc1` stands 2.24%; under `CC(NC(=O)c1ccc(CNS(=O)(=O)c2ccc(Br)cc2)cc1)c1ccccc1` (stereo not drawn), -3.58%.

In the case of `CCc1ccc(-c2nc(SCC(=O)NCCCOC)c(-c3ccc(F)cc3)[nH]2)cc1`, the “% Inhibition @ 10 uM” value is given as 3.28%. Under `COc1ccc(C2=N/C(=C\C=C\c3ccccc3)C(=O)O2)c(Cl)c1` stands 0.775%.

For `COc1ccc(-c2nc3c(=O)n(C)c(=O)n(C)c3[nH]2)c(OC)c1`, the “% Inhibition @ 10 uM” value is listed as -3.33%. Under `Cc1ccc(Cn2c(C(=O)O)c(CNCc3ccc4c(c3)OCO4)c3ccc(C)cc32)cc1` stands 8.82%; under `CSc1nc(SC)c2c3c(oc2n1)COC(C)(C)C3`, -2.63%. Take `O=C(c1cccnc1)N1CCc2ccccc2C1`: the “% Inhibition @ 10 uM” value was -1.6%. For `O=C(Nc1cccc(O)c1)C(=O)C1C(=O)Nc2ccccc2S1=O` (stereo not drawn), the “% Inhibition @ 10 uM” value is given as -1.04%. In the case of `CCCCNC(=O)c1sc2ncn(CC(=O)N3CC(C)CC(C)C3)c(=O)c2c1C` (stereo not drawn) it was -2.17%; in that of `COc1cc(C2c3c(oc4ccccc4c3=O)C(=O)N2Cc2ccc(F)cc2)ccc1O` (stereo not drawn), -3.13%; in that of `CCc1ccc(C2=NN(CCC(=O)NCc3cccnc3)C(=O)CC2)cc1`, -2.94%. In the case of `CC1=C(C(=O)OCC(F)(F)F)C(c2ccccc2Cl)NC(=O)N1` (stereo not drawn) it was 5.92%; in that of `O=C(CSCC(=O)N(C1CCCCC1)C1CCCCC1)Nc1ccccc1`, -5.31%. In the case of `O=C(C(F)F)N(Cc1ccccc1)Cc1ccccc1` it was -3.52%.

Turning to `CCOC(=O)c1cc2cc(Br)ccc2oc1=O`, the “% Inhibition @ 10 uM” value is -4.31%.

For `CC(=O)c1cc(-c2ccc(F)cc2)n(CC(=O)N2CCC(C)CC2)c1C`, the “% Inhibition @ 10 uM” value is -1.88%. In the case of `CC(C)NC(=S)N1CCN(c2ccc(N3CCOCC3)nn2)CC1` it was -2.88%; in that of `COc1ccc(CCC2=NCCn3cccc32)cc1OC`, -0.999%; in that of `COCCOC(=O)N/C=C\c1nc(O)c2ccccc2n1`, -4.65%. Regarding `Cc1cc(OC(C)C(=O)Nc2ccc(N(C)C)cc2)ccc1Cl` (stereo not drawn), the “% Inhibition @ 10 uM” value is listed as -7.98%.

Consider `O=C(c1ccccc1)c1conc1C(=O)c1ccc(Br)cc1`, for which the “% Inhibition @ 10 uM” value worked out at 4.52%.

For `CC(=O)C1=C(C)N=C2C(=C(O)c3ccccc32)C1c1cccc(Br)c1` (stereo not drawn), the “% Inhibition @ 10 uM” value is listed as -0.105%. Consider `O=C(O)c1ccc2nc3c4ccccc4c4ccccc4c3nc2c1`, for which the “% Inhibition @ 10 uM” value turned out to be 13.3%.

With `Cc1ccc(-n2nc3c(=O)n(CCCC(=O)NCc4ccc5c(c4)OCO5)nc(C)c3c2C)cc1`, the “% Inhibition @ 10 uM” value is listed as -7.94%. Turning to `CCC(C)NC(=O)C(C)n1sc2ccccc2c1=O` (stereo not drawn), the “% Inhibition @ 10 uM” value is recorded as -0.385%. `CN1CCN(C(=O)/C=C\C(=O)O)CC1`: the “% Inhibition @ 10 uM” value is recorded as -0.127%. Under `COC12C=C(C)C(C(C)=C1)c1c(F)c(F)c(F)c(F)c12` stands 1.4%; under `CCC(C)NC(=O)c1ccc(-n2cnc3cccnc32)cc1` (stereo not drawn), -0.571%. As to `COCCNC(=O)c1ccc(CSc2nc3cccnc3n2Cc2ccc(OC)cc2)cc1`, the “% Inhibition @ 10 uM” value came to 2.72%. With `COC1CCCCC1NCCc1cccc(Cl)c1` (stereo not drawn), the “% Inhibition @ 10 uM” value is 3.44%. In the case of `N#CCCS(=O)(=O)c1ccc(Br)cc1` it was 1.63%; in that of `O=C(Nc1ccccc1)c1cc2nc(C(F)F)cc(C(F)F)n2n1`, 2.4%; in that of `O=C(Nc1cccc2ccccc12)c1cccs1`, -4.67%. In the case of `CC(C)(C)c1[nH]nc2c1C(c1cccc(O)c1)C(C#N)=C(N)O2` (stereo not drawn) it was -0.366%; in that of `Cc1cc(C)n(CCc2ccccc2)n1`, -4.06%. In the case of `Cc1ccc(NS(=O)(=O)c2ccc(Br)cc2C)c(C)c1` it was -6.07%.
